# Source: PubChem BioAssay (Tox21)
# Several values for one entry are separate records, joined by “and”; a condition that tells them apart may be missing. Identical values can stand only once. The inconclusive results got no clear call from the source; some entries with a clear call stand among them for comparison. For some of these results: Potencies of inconclusive entries are doubtful fits and often do not repeat. Some structures have more than one record in an assay (separate samples or runs), and their calls can disagree. Activity calls are given as the source filed them. Unless noted, the call rests on the fitted dose curve; in most records, active means well fitted curve in the direction sought with a large enough effect in the repeat runs; inconclusive means weak or mixed curves; inactive means no such curve, though single readings can be large; an effect the other way counts as inactive or inconclusive.
# How the values were obtained:
# [1] = qHTS assay to identify small molecule HDAC inhibitors (AID 1259364); further: potency means the concentration at half of the fitted maximal effect; nearly all actives have a fitted effect of over 45% in size
# Procedure, shortened: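 Wild-type HCT-116 cells were plated overnight, exposed to compounds for 2 h at 37 °C, then given HDAC-Glo class I/II luminogenic reagent for 30 min at room temperature before luminescence was read.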
# [2] = qHTS RealTime-Glo MT Cell Viability Assay in HepG2 cells - 16 hour (AID 1224885); further: nearly all actives have a fitted effect of over 50% in size; further: potency means the concentration at half of the fitted maximal effect
# Procedure, shortened: (§1)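 Luminescence read-out: viable HepG2 cells reduce a prosubstrate to a NanoLuc substrate, giving a signal proportional to live cell number. Reads taken at 0, 8, 16, 24, 32 and 40 h of compound exposure at 37 C.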
# [3] = qHTS assay to identify small molecule antagonists of the sonic hedgehog signaling (Shh) pathway (AID 1259369; calls by dose curve; further: potency means the concentration at half of the fitted maximal effect; nearly all actives have a fitted effect of over 45% in size)
# Procedure, shortened: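 NIH/3T3-derived 3T3Gli1-Luc cells with stably integrated Gli1-Luc reporter were preincubated 4hr at 37 C, then given compounds in DMSO plus Shh conditioned medium and incubated 24hr. Firefly luciferase luminescence read after 30min reagent at room temperature.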
# [4] = molecular target: Estrogen receptor beta (Homo sapiens) (UniProt Q92731); experiment: qHTS assay to identify small molecule agonists of the estrogen receptor beta (ER-beta) signaling pathway (AID 1259377; active means well fitted activation curve with a large enough effect in the signal ratio in the repeat runs, not every such curve was filed as active; inconclusive means weak or mixed curves, or effect the other way; the % refers to the signal ratio; further: potency means the concentration at half of the fitted maximal effect); settings: ER-beta-UAS-bla HEK293T, beta-lactamase FRET ratio, 16 h; activation: at 92.4 µM (top of the series) unless noted
# Procedure, shortened: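 Ratiometric beta-lactamase FRET read-out came after 2 h substrate loading at room temperature. It followed 16 h compound treatment at 37C of GripTite HEK293T cells carrying a UAS-bla reporter, plated in 2% charcoal-stripped FBS medium.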
# [5] = qHTS RealTime-Glo MT Cell Viability Assay in HepG2 cells - 0 hour (AID 1224889); further: nearly all actives have a fitted effect of over 50% in size; further: potency means the concentration at half of the fitted maximal effect; on activity change, negative = cytotoxicity: on the % scale 0 is the no-effect control and ±100 the full control effect
# Procedure, shortened: as §1
# [6] = qHTS assay to identify small molecule antagonists of the estrogen receptor alpha (ER-alpha) signaling pathway using the BG1 cell line in the presence of 0.1 nM 17-beta-estradiol - cell viability counter screen (AID 1259241); further: potency means the concentration at half of the fitted maximal effect; nearly all actives have a fitted effect of over 40% in size
# Procedure, shortened: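 Cytotoxicity counter-screen: live-cell protease activity measured by fluorescence (30 min reagent step) in the same wells. Cells were VM7Luc4E2 with endogenous ER-alpha and ERE-driven luciferase, treated 22 hr at 37C alongside 0.1 nM 17beta-estradiol final.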
# [7] = qHTS assay to identify small molecule antagonists of the androgen receptor (AR) signaling pathway using the MDA cell line in the presence of 0.5 nM R1881 - cell viability counter screen (AID 1259242); further: potency means the concentration at half of the fitted maximal effect; nearly all actives have a fitted effect of over 45% in size
# Procedure, shortened: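 MDA-kb2 cells (human breast carcinoma, stably carrying MMTV-luciferase reporter) were exposed to compounds with 0.5 nM R1881 (final) for 16 hr at 37C, 0% CO2; viability then read as live-cell protease fluorescence (CellTiter-Fluor, 30 min) in the same wells.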
# [8] = molecular target: Estrogen receptor (Homo sapiens) (UniProt P03372); experiment: qHTS assay to identify small molecule antagonists of the estrogen receptor alpha (ER-alpha) signaling pathway using the BG1 cell line in the presence of 0.1 nM 17-beta-estradiol (AID 1259244); further: nearly all actives have a fitted effect of over 50% in size; further: potency means the concentration at half of the fitted maximal effect
# Procedure, shortened: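 VM7Luc4E2 cells (endogenous full-length ER-alpha, stable 4xERE-luciferase) were grown 5 days in phenol red-free medium with charcoal-stripped FBS, then exposed 22 h at 37C to compounds plus 0.1 nM (final) 17beta-estradiol; ONE-Glo luminescence read-out.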
# [9] = qHTS assay to identify small molecule HDAC inhibitors - cell viability counter screen (AID 1259365); further: nearly all actives have a fitted effect of over 50% in size; further: potency means the concentration at half of the fitted maximal effect; on activity change, negative = cytotoxicity: on the % scale 0 is the no-effect control and ±100 the full control effect
# Procedure, shortened: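 CellTiter-Glo luminescence (30 min, room temperature) reported viability after a 2 h compound exposure at 37 C. Cells: wild-type HCT-116, 1,500 per well, seeded the night before.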
# [10] = qHTS assay to identify small molecule agonists of the sonic hedgehog signaling (Shh) pathway - cell viability counter screen (AID 1259366); further: nearly all actives have a fitted effect of over 50% in size; further: potency means the concentration at half of the fitted maximal effect
# Procedure, shortened: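 Cytotoxicity counter screen: CellTiter-Fluor reagent added after 23 h compound exposure, then 1 h at 37C and fluorescence read. Cells were 3T3 Gli1-Luc, seeded 2,000 per well and dosed 4 h post-plating.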
# [11] = qHTS RealTime-Glo MT Cell Viability Assay in HEK293 cells - 8 hour (AID 1224887)
# Procedure, shortened: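 HEK293 cells mixed with RealTime-Glo reagents (NanoLuc plus cell-permeant prosubstrate) at 600 cells/well, preincubated 5 h at 37 C/5% CO2, then given 23 nL compound in DMSO. Nonlytic luminescence from viable cells was read at 0, 8, 16, 24, 32 and 40 h.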
# [12] = molecular target: Androgen receptor (Homo sapiens) (UniProt P10275); experiment: qHTS assay to identify small molecule antagonists of the androgen receptor (AR) signaling pathway using the MDA cell line in the presence of 0.5 nM R1881 (AID 1259243)
# Procedure, shortened: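 MDA-kb2 human breast carcinoma cells carrying an MMTV-luciferase reporter (AR- and GR-responsive) were plated, rested 5 hr at 37C, dosed with compounds, then stimulated with 0.5 nM R1881 (final) for 16 hr; luminescence was read after ONE-Glo.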
# [13] = qHTS assay to identify small molecule phospholipidosis (PLD) inducers (AID 1259344; active means well fitted curve in the direction sought with a large enough effect; inconclusive means small, poorly fitted or top-dose-only effect, or another doubt; inactive means no such curve, though single readings can be large; an effect the other way counts as inactive or inconclusive; further: potency means the concentration at half of the fitted maximal effect)
# Procedure, shortened: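 HepG2 cells, 900/well, treated with compound plus LipidTOX Red for 24 h at 37 C; amiodarone positive and DMSO negative controls. Fixed with paraformaldehyde/Hoechst, then high-content imaging scored LipidTOX pit count and integrated intensity per well and per cell.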
# [14] = qHTS assay to identify small molecule antagonists of the sonic hedgehog signaling (Shh) pathway - cell viability counter screen (AID 1259367); further: nearly all actives have a fitted effect of over 55% in size; further: potency means the concentration at half of the fitted maximal effect
# Procedure, shortened: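 NIH/3T3-derived Gli1-Luc reporter cells, 2,000/well, plated 4 hr before compound addition, then stimulated with conditioned medium for 24 hr at 37C. Viability measured in the same wells by CellTiter-Fluor fluorescence, reagent added at 23 hr for 1 hr.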
# [15] = qHTS RealTime-Glo MT Cell Viability Assay in HEK293 cells - 24 hour (AID 1224886)
# Procedure, shortened: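 Nonlytic real-time viability readout: viable cells convert prosubstrate to NanoLuc substrate, giving luminescence proportional to live cell number. HEK293, 600 cells/well, compound added after 5 h, continuous culture at 37 C.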
# Tags describe the fitted curve by direction and shape or compound fluorescence and quenching.
# Sequence of UniProt P03372 (P03372 whole entry, looked up): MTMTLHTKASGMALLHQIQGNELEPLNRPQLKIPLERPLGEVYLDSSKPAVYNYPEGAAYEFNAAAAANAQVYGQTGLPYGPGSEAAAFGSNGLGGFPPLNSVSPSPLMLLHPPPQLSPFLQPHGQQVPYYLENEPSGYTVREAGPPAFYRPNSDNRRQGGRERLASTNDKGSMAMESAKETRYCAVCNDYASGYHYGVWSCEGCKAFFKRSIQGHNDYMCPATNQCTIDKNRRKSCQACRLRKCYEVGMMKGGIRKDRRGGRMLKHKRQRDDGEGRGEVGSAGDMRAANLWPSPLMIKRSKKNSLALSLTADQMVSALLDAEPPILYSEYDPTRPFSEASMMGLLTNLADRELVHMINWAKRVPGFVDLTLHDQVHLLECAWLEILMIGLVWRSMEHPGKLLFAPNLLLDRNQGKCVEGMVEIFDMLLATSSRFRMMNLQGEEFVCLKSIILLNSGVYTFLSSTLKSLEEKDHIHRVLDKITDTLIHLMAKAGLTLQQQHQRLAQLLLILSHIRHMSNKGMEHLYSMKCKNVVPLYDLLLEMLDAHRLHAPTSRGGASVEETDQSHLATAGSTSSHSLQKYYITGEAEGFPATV
# Sequence of UniProt Q92731 (Q92731 whole entry, looked up): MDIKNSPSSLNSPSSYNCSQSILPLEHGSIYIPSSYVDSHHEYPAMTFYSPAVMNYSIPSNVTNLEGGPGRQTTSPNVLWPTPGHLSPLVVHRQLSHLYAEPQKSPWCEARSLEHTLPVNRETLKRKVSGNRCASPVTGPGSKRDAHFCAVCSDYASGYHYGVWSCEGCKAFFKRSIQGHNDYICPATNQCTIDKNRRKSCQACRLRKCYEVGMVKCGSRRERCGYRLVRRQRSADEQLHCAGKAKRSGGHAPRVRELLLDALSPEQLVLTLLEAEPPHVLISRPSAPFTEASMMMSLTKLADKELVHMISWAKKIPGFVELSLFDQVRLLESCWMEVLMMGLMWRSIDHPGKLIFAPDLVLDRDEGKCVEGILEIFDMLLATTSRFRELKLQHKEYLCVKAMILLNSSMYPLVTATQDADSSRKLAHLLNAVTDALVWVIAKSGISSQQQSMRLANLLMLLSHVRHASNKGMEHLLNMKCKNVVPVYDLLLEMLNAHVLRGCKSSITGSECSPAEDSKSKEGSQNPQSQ
# Sequence of UniProt P10275 (P10275 whole entry, looked up): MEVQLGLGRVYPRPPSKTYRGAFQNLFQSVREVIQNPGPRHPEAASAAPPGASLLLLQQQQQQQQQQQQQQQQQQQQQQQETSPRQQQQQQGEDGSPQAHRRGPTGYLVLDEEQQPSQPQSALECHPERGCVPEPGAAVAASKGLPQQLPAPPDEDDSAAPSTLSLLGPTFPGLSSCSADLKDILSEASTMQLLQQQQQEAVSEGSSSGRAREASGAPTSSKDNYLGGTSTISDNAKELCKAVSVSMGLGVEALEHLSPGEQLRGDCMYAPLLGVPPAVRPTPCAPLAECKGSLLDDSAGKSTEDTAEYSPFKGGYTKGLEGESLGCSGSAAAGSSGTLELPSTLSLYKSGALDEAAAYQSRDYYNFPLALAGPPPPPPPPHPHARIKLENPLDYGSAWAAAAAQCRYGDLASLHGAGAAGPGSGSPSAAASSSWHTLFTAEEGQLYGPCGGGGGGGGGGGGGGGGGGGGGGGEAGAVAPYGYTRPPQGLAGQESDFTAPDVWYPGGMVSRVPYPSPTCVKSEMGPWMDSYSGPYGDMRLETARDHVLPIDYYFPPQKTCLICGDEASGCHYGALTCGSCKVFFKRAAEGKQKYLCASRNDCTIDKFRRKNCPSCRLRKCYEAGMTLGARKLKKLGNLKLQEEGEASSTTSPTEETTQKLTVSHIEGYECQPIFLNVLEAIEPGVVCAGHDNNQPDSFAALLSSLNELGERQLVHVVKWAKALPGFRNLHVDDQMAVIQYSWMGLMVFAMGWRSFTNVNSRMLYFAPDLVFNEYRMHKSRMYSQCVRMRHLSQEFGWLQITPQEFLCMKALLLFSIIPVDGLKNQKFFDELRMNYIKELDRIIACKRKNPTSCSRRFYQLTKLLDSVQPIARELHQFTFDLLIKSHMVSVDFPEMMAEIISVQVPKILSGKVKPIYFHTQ
smiles,measurement,setting,value
CCCCCCCCC1CO1 (stereo not drawn),Potency,[1],"inconclusive: 31.3 µM [inhibitor, partial curve]"
O=C(O)c1cc(Cl)cc(Cl)c1O,Potency,[1],"inconclusive: 48.6 µM [inhibitor, partial curve]"
CC(C)C[P+](C)(CC(C)C)CC(C)C,Potency,[2],inactive
same,Potency,[3],"inconclusive: 13.8 µM [inhibitor, single point]"
same,Potency,[4],"inconclusive: 61.5 µM [rising, partial curve, poor fit]"
Cc1c(C(=O)O)c(O)cc2c1C(=O)c1c(O)c([C@@H]3O[C@H](CO)[C@@H](O)[C@H](O)[C@H]3O)c(O)c(O)c1C2=O,Potency,[2],"inconclusive: 60.2 µM [cytotoxic, partial curve, poor fit]"
same,Potency,[5],inactive
same,Potency,[6],"active: 33.5 µM and active: 21.7 µM and inconclusive: 7.5 µM [cytotoxic, full curve, poor fit]"
same,Potency,[7],inconclusive: 26.6 µM [cytotoxic]
same,Potency,[8],"inconclusive: 29.9 µM [inhibitor] and inconclusive: 27.3 µM [inhibitor, partial curve]"
same,Potency,[1],"inconclusive: 47.4 µM [inhibitor, partial curve] and inconclusive: 54.5 µM [inhibitor, partial curve, poor fit]"
same,Potency,[9],"inconclusive: 29.9 µM [cytotoxic, partial curve] and active: 27.3 µM and inactive"
same,Potency,[10],"active: 26.6 µM and active: 27.3 µM and inconclusive: 15 µM [cytotoxic, partial curve]"
O=C(O)CNC(=O)c1ccc([N+](=O)[O-])cc1,Potency,[2],inactive
same,Potency,[10],inactive
O=C1CCCc2c1cc1ccc3cccc4ccc2c1c34,Potency,[2],inactive
same,Potency,[11],"inconclusive: 22.2 µM [cytotoxic, partial curve]"
same,Potency,[9],"inconclusive: 69.4 µM [cytotoxic, partial curve, poor fit]"
same,Potency,[4],"inconclusive: 69.4 µM [fluorescent, single point]"
CN1CCC(Nc2ncc3ncnc(Nc4ccc(F)c(Cl)c4)c3n2)CC1,Potency,[2],"inconclusive: 26.8 µM [cytotoxic, partial curve, poor fit]"
same,Potency,[11],"inconclusive: 10.7 µM [cytotoxic, partial curve, poor fit]"
same,Potency,[12],"inconclusive: 33.5 µM [inhibitor, single point]"
same,Potency,[13],active: 11.2 µM
same,Potency,[10],active: 29.8 µM
same,Potency,[14],"inconclusive: 33.5 µM [cytotoxic, partial curve]"
same,Potency,[4],"inconclusive: 29.8 µM [fluorescent, single point]"
CC[C@H](NC(=O)c1cc(F)ccc1NS(=O)(=O)c1cccc2cccnc12)c1ccccc1,Potency,[2],active: 46.3 µM
same,Potency,[5],"inconclusive: 11.6 µM [cytotoxic, partial curve]"
same,Potency,[8],"inconclusive: 29 µM [inhibitor, partial curve]"
O=C(Oc1ccccc1)c1ccccc1C(=O)Oc1ccccc1,Potency,[2],"inconclusive: 43.6 µM [cytotoxic, partial curve, poor fit]"
same,Potency,[5],"inconclusive: 24.5 µM [cytotoxic, partial curve]"
same,Potency,[8],inactive
same,Potency,[10],"inconclusive: 43.3 µM [cytotoxic, partial curve]"
same,Potency,[3],"inconclusive: 21.7 µM [inhibitor, full curve, poor fit]"
same,Potency,[4],"inconclusive: 13.7 µM [rising, partial curve]"
COCCOC(=O)C1=C(C)NC(C)=C(C(=O)OC/C=C/c2ccccc2)C1c1cccc([N+](=O)[O-])c1 (stereo not drawn),Potency,[2],"inconclusive: 19 µM [cytotoxic, partial curve]"
same,Potency,[11],"inconclusive: 19 µM [cytotoxic, partial curve]"
same,Potency,[5],active: 6.74 µM
same,Potency,[8],inconclusive: 29.8 µM [inhibitor]
same,Potency,[10],"inconclusive: 18.8 µM [cytotoxic, partial curve]"
same,Potency,[3],"inconclusive: 21.1 µM [inhibitor, partial curve, poor fit]"
CCCN(CCC)CCc1cccc2c1CC(=O)N2,Potency,[2],inactive
same,Potency,[10],inactive
CCN[C@@H]1C[C@H](N)[C@@H](OC2OC(CN)=CCC2N)[C@H](O)[C@H]1O[C@H]1OC[C@](C)(O)[C@H](NC)[C@H]1O (stereo partly drawn),"activity change, negative = cytotoxicity",[15],inactive: 3.34% [at 0.29 µM]
Cc1cc(S(=O)(=O)O)ccc1N=Nc1c(O)ccc2ccccc12,Potency,[2],"inconclusive: 43.6 µM [cytotoxic, partial curve, poor fit]"
same,Potency,[5],"inconclusive: 54.9 µM [cytotoxic, partial curve, poor fit]"
same,Potency,[7],active: 48.6 µM
same,Potency,[9],"inconclusive: 48.6 µM [cytotoxic, partial curve, poor fit]"
same,Potency,[14],active: 27.3 µM
Cc1ccc(C)c(O)c1,Potency,[15],inactive
c1ccc2ccccc2c1,Potency,[15],inactive
CCc1nn(CCCN2CCN(c3cccc(Cl)c3)CC2)c(=O)n1CCOc1ccccc1,Potency,[2],"inconclusive: 26.8 µM [cytotoxic, single point]"
same,Potency,[5],"inconclusive: 26.8 µM [cytotoxic, single point]"
same,Potency,[7],active: 26.6 µM
same,Potency,[8],active: 11.9 µM
same,Potency,[13],"inconclusive: 10 µM [activator, partial curve, poor fit]"
same,Potency,[14],inactive
same,Potency,[3],active: 15 µM
